This passage reports AC50 results from PubChem BioAssay (NCATS).

Test [1] is described as follows: qHTS drug screen for cell cycle checkpoint inhibitors in PARPi-resistant BRCA-mutant ovarian cancer cell lines. (AID 1963452). Conditions: PEO1/OlaR viability, CellTiter-Glo luminescence, 96 h. The procedure, abridged: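 PEO1, PEO4 and PEO1/OlaR ovarian cancer cells, 600 per well, exposed 96 h at 37C to a dilution series. Viability read by CellTiter-Glo luminescence, normalized to DMSO and empty wells; activity summarized as Z-AUC.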
(In qHTS, concentration-response curves come from the screen itself.)

Test [2] can be described thus: qHTS for identification of novel therapeutic agents for treatment of microphthalmiaassociated transcription factor (MiT) renal cell carcinoma (RCC) (AID 1963991). Conditions: TFE3-RCC viability, CellTiter-Glo, 48 h. The procedure, abridged:
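Three TFE3-fusion RCC lines (UOK109, UOK124, UOK145), 500 cells/well in complete medium, were treated with MIPE 4.0 compounds for 48 hours at 37 C. Viability was by CellTiter-Glo luminescence, normalized to DMSO (100%) and empty wells (0%); curves fitted over 11 concentrations.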

[3] abbreviates: measured here: PEO1 parental viability.
Setting [4] is: measured here: UOK124 cell viability.
The mark [5] stands for this setting: measured here: UOK145 cell viability.

The term AC50 denotes the concentration at which the activity in the assay is half-maximal.

This is one part of the list. Further columns of the screen follow, without active or inactive calls. For some assays here: Compounds called inactive in the main read-out are mostly missing here. Potencies come from curve fits of mixed quality, noted in brackets.
Tags describe the fitted curve by direction and shape.

Take `COC(=O)Nc1nc2ccc(C(=O)c3ccc(F)cc3)cc2[nH]1`: the AC50 is 123 nM [falling, full curve] in test [1] (setting [3]); 123 nM [falling, full curve] in test [1] (measured here: PEO4 viability); 526 nM [falling, full curve] in test [2] (setting [4]); 418 nM [falling, full curve] in test [2] (setting [5]).
In the case of `CC[C@@H]1C(=O)N(C)c2cnc(Nc3ccc(C(=O)NC4CCC(N5CCN(CC6CC6)CC5)CC4)cc3OC)nc2N1C(C)C` (some centres not stated), the AC50 in test [1] (setting [3]) is 15.5 nM [falling, full curve]; in test [1] (measured here: PEO4 viability), 15.5 nM [falling, full curve]; in test [2] (setting [4]) it was 1180 nM [falling, full curve]; in test [2] (setting [5]) it was 2640 nM [falling, partial curve].
Regarding `COc1ccc(Nc2cc(-c3cnc(N)nc3)nc(N3CCOCC3)n2)cn1`, the AC50 is 1950 nM [falling, full curve] in test [1] (setting [3]); 12300 nM [falling, partial curve] in test [1] (measured here: PEO4 viability); 7430 nM [falling, full curve] in test [2] (setting [4]); 2350 nM [falling, full curve] in test [2] (setting [5]).
Turning to `C#CCC(Cc1cnc2nc(N)nc(N)c2n1)c1ccc(C(=O)N[C@@H](CCC(=O)O)C(=O)O)cc1` (some centres not stated), the AC50 in test [1] (setting [3]) was 6.9 nM [falling, full curve]; in test [1] (measured here: PEO4 viability), 6.9 nM [falling, full curve]; in test [2] (setting [4]), 52.6 nM [falling, full curve]; in test [2] (setting [5]), 41.8 nM [falling, full curve].
As to `CCN1CCN(CC(=O)Nc2ccc(-c3cccc4c(=O)cc(N5CCOCC5)oc34)c3sc4ccccc4c23)CC1`, the AC50 in test [1] (setting [3]) is 2130 nM [falling, full curve]; in test [1] (measured here: PEO4 viability), 3010 nM [falling, partial curve]; in test [2] (setting [4]) it was 4690 nM [falling, full curve]; in test [2] (setting [5]), 1480 nM [falling, partial curve].
As to `CN(C)CCN(C)C(=O)c1ccc(NC(=O)Nc2ccc(-c3nc(N4CCOCC4)c4ccn(CC(F)(F)F)c4n3)cc2)cc1`, the AC50 in test [1] (setting [3]) is 309 nM [falling, full curve]; in test [1] (measured here: PEO4 viability), 219 nM [falling, full curve]; in test [2] (setting [4]), 1480 nM [falling, full curve]; in test [2] (setting [5]), 743 nM [falling, full curve].
Consider `COc1ncc(-c2ccc3nccc(-c4ccnnc4)c3c2)cc1NS(=O)(=O)c1ccc(F)cc1F`, for which the AC50 was 87.1 nM [falling, full curve] in test [1] (setting [3]); 97.7 nM [falling, full curve] in test [1] (measured here: PEO4 viability); 29.6 nM [falling, full curve] in test [2] (setting [4]); 8.33 nM [falling, full curve] in test [2] (setting [5]).
For `COc1cccc(OCCCN)c1-c1cc(Nc2cnc(C#N)cn2)n[nH]1`, the AC50 in test [1] (setting [3]) is 12.3 nM [falling, full curve]; in test [1] (measured here: PEO4 viability), 15.5 nM [falling, full curve].
On to `COc1ccc(-c2ccc3ncc4c(c3c2)n(-c2ccc(N3CCNCC3)c(C(F)(F)F)c2)c(=O)n4C)cn1`, for which the half-maximal activity concentration (AC50) was 27.5 nM [falling, full curve] in test [1] (setting [3]); 17.4 nM [falling, full curve] in test [1] (measured here: PEO4 viability); 743 nM [falling, full curve] in test [2] (setting [4]); 2960 nM [falling, partial curve] in test [2] (setting [5]).
Consider `N#CNC(=NCCCCCCOc1ccc(Cl)cc1)Nc1ccncc1`, for which the concentration at half-maximal activity (AC50) in test [1] (setting [3]) is 6.9 nM [falling, full curve]; in test [1] (measured here: PEO4 viability), 6.9 nM [falling, full curve]; in test [2] (setting [4]), 14.8 nM [falling, full curve]; in test [2] (setting [5]) it was 13.2 nM [falling, full curve].
Consider `CC(C)c1cc(C(=O)N2Cc3ccc(CN4CCN(C)CC4)cc3C2)c(O)cc1O`, for which the half-maximal activity concentration (AC50) in test [1] (setting [3]) was 195 nM [falling, full curve]; in test [1] (measured here: PEO4 viability) it was 174 nM [falling, full curve, poor fit]; in test [2] (setting [4]) it was 148 nM [falling, full curve]; in test [2] (setting [5]) it was 590 nM [falling, full curve].
For the molecule `COC[C@H](NC(=O)c1cnc(C)s1)C(=O)N[C@@H](COC)C(=O)N[C@@H](Cc1ccccc1)C(=O)[C@@]1(C)CO1`, the AC50 in test [1] (setting [3]) is 61.6 nM [falling, full curve]; in test [1] (measured here: PEO4 viability), 27.5 nM [falling, full curve]; in test [2] (setting [4]) it was 5260 nM [falling, partial curve]; in test [2] (setting [5]), 187 nM [falling, full curve].
Regarding `N#Cc1c(NC(=O)c2cccc3ccccc23)sc2c1CCCC2`, the AC50 in test [1] (setting [3]) was 155 nM [falling, full curve]; in test [1] (measured here: PEO4 viability) it was 195 nM [falling, full curve]; in test [2] (setting [4]), 235 nM [falling, full curve]; in test [2] (setting [5]), 332 nM [falling, full curve].
As for `Cc1ccc(-c2ncn(-c3ccc(Nc4nccc(-c5cccc(N6CCOCC6)c5)n4)cc3)n2)cn1`, the AC50 in test [1] (setting [3]) was 1230 nM [falling, partial curve, poor fit]; in test [1] (measured here: PEO4 viability), 1230 nM [falling, full curve]; in test [2] (setting [4]) it was 148 nM [falling, full curve]; in test [2] (setting [5]), 332 nM [falling, full curve].
Regarding `CNC(=O)Nc1ccc(-c2nc(N3CC4CCC(C3)O4)c3cnn(C4CCC5(CC4)OCCO5)c3n2)cc1`, the AC50 in test [1] (setting [3]) is 871 nM [falling, partial curve]; in test [1] (measured here: PEO4 viability) it was 1380 nM [falling, partial curve]; in test [2] (setting [4]), 16.6 nM [falling, full curve]; in test [2] (setting [5]), 18.7 nM [falling, full curve].
For the molecule `CN[C@H]1CCc2cc(OC)c(OC)c(OC)c2-c2ccc(OC)c(=O)cc21`, the AC50 in test [1] (setting [3]) is 219 nM [falling, full curve]; in test [1] (measured here: PEO4 viability), 174 nM [falling, full curve]; in test [2] (setting [4]) it was 3.72 nM [falling, full curve]; in test [2] (setting [5]) it was 1.18 nM [falling, full curve].
